From PubChem BioAssay AID1963576 (National Center for Advancing Translational Sciences (NCATS), 2024)
About 60 (0.1%) of roughly 46,000 compounds were called active. Another 3% or so got no clear call; they are omitted. Calls follow the shape of the dose curve; as a rule, active = well fitted inhibition curve with a large enough effect; inconclusive = small, poorly fitted or top-dose-only effect; inactive = no such curve, though single readings can be large or run the other way. Some of the results follow.

assay: Primary qHTS assay for Inhibitors of ovarian cancer metastasis using an organotypic tumor microenvironment (TME) model.; also: nearly all actives have a fitted effect of over 65% in size;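 as to activity change, negative = inhibition: plate controls were DMSO wells for no effect and tomatine positive control wells for full effect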; conditions: SKOV3ip1-GFP adhesion/invasion on 3D omental model, fluorescence; series mostly up to 45.8 µM; activity change, negative = inhibition: at the top concentration
How it was run: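 Adhesion/invasion was scored as fixed GFP-labeled SKOV3ip1 cell counts (488/509 nm), normalized to DMSO and tomatine controls. Cancer cells in serum-free medium, with four compound doses (0.36-46 umol/L), sat 2 hr at RT then 16 hr at 37 C on a 48 hr fibroblast/mesothelial/ECM culture.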

Activity change, negative = inhibition, inactive:
O=C(CNC(=O)c1ccccc1F)OCc1cc(=O)n2ccsc2n1 59.8%
Cc1ccc(CN2CCN(C3CCN(C(=O)c4ccccc4)CC3)C(=O)C2=O)cc1 -2.25%
Cc1nc(-c2ccc(Cl)cc2)sc1CCNC(=O)Cc1ccc(F)cc1 -28.3%
O=S(=O)(c1ccccc1)c1nc(-c2ccc(Cl)cc2Cl)oc1N1CCCCC1 17.8%
Cc1ccc(C(=O)Nc2cccc(O)c2)cc1S(=O)(=O)N1CCCCCC1 -14.8%
COc1cccc(NC(=O)CSc2nc(=O)n(Cc3ccco3)c3c2CCC3)c1 -0.114%
COc1cc(C2C(C(=O)OCC(C)C)=C(C)N=C3SCCC(=O)N32)ccc1OCc1ccccc1 (configuration not stated) 29.2%
Cc1cccc(NC(=O)Cn2nnc(C(=O)Nc3ccc(F)c(Cl)c3)c2N)c1 1.67%
Cc1ccc(Nc2nc3c(S(=O)(=O)c4ccccc4)nnn3c3ccsc23)c(C)c1 -2.44%
Cc1cccc2sc(N(CCCN(C)C)C(=O)c3ccc(Cl)s3)nc12 -10.1%
Cc1sc2ncn(CC(=O)N3CCN(c4ccc(F)cc4)CC3)c(=O)c2c1S(=O)(=O)N1CCCCC1 -6.24%
Cc1ccc(S(=O)(=O)c2cn(CC(=O)Nc3ccc4c(c3)OCO4)c3ccccc3c2=O)cc1 52.2%
CC1=C(C(=O)Nc2ccc(C)cc2C)C(C(C)C)n2nc(SCc3ccccc3Cl)nc2N1 (configuration not stated) 0.923%
N#Cc1c(NC(=O)c2cccc3ccccc23)sc2c1CCCC2 59.3%
O=C(c1ccco1)n1nc(-c2ccccc2)nc1NCc1ccc(F)cc1 -0.582%
COc1cccc2sc(N(Cc3cccnc3)C(=O)Cc3ccccc3)nc12 8.14%
Cc1c(C(=O)Nc2cccc(C(F)(F)F)c2)sc2nc3n(c(=O)c12)CCCC3 -12.7%
Cn1c(C(=O)NCc2ccccc2F)cc2oc3ccccc3c21 5.95%
Cc1ccc(S(=O)(=O)N2CCN(Cc3noc(CCC(=O)N4CCCCC4)n3)CC2)c(C)c1 -3.86%
CC(C)Cn1c(=O)c2sccc2n2c(CCCC(=O)NCCc3ccccc3)nnc12 -1.07%
CC(C)C(=O)N1c2ncnn2C2(CCCCC2)[C@@H]2CCCC[C@@H]21 -8.6%
COc1cc(C(=O)Nc2ccc3[nH]c(=O)sc3c2)cc(OC)c1OC 4.61%
COc1ccc2oc(-c3cccc(NC(=O)c4ccc(C#N)cc4F)c3)nc2c1 12.1%
CCN1CCN(c2oc(-c3ccc(COc4ccc(C)cc4)o3)nc2C#N)CC1 -14.6%
CCCCNc1ncnc2c1nnn2C -3.68%
Cc1ccn2c(Nc3ccc4c(c3)OCO4)c(-c3ccc(N(C)C)cc3)nc2c1 -12.9%
COc1ccccc1CNC(=O)NCc1noc2ccc(C)cc12 -8.36%
CCOc1ccc(NC(=O)CC2C(=O)N(c3ccccc3)C(=O)N2C2CCCCC2)cc1 (configuration not stated) 3.45%
Cc1nc(Nc2ccc(Cl)cc2)cc(-c2ccccc2)n1 -22.4%
COCCCNC(=O)c1sc2nc3n(c(=O)c2c1C)CCC3 0.411%
Cc1nc2ccc(S(=O)(=O)CCC(=O)Nc3ccc(C)c(C)c3)cc2s1 13.9%
CCc1ccc(NC(=O)C(C)n2nnc3sc(-c4ccccc4)cc3c2=O)cc1 (configuration not stated) 0.283%
O=C(Cn1cc(S(=O)(=O)N2CCCC2)c(S(=O)(=O)N2CCCC2)c1)Nc1cccc(F)c1 17.5%
COc1ccccc1CNC(=O)CN1C(=O)COc2ccc(S(=O)(=O)N3CCC(C)CC3)cc21 -14.4%
CCOc1ccc(C2=NC(c3ccc(OC)cc3)=Nc3ccc(Cl)cc3N2)cc1 -19.1%
C=CCC(CC=C)(CNC(=O)C(=O)Nc1cc(C)ccc1OC)c1ccc(OC)c(OC)c1 -3.17%
Cc1csc2nc(COC(=O)c3ccccc3NC(=O)COc3ccccc3F)cc(=O)n12 -7.72%
Cc1ccc(CN(C(=O)COc2ccc(Cl)c(C)c2)C2CCS(=O)(=O)C2)o1 (configuration not stated) -3.24%
Cc1nc2nc(SCC(=O)O)nn2c(C)c1Cc1c(F)cccc1Cl 4.43%
CC(C)C(=O)N(Cc1ccccc1)S(=O)(=O)c1ccc2c(c1)oc(=O)n2C -0.827%
COc1ccc(S(=O)(=O)NCCCO)cc1-c1nnc2c3ccccc3c(C)nn12 66.1%
C=CCc1cccc(C=NNC(=O)CN2CCN(Cc3ccccc3)CC2)c1O -18.3%

outcome, inactive:
CCN(CC)CCCNC(=O)c1cn(CC)c2ccc(S(=O)(=O)N3CCc4ccccc4C3)cc2c1=O
Cc1cc(C)c2nc(N(Cc3cccnc3)C(=O)c3ccc(S(=O)(=O)N(C)C)cc3)sc2c1
CCN1CCN(c2cc3c(cc2F)c(=O)c(S(=O)(=O)c2ccc(OC)cc2)cn3CC)CC1
COc1ccc(C2CC(=O)N(Cc3ccc(F)cc3)c3ccccc3S2)cc1 (configuration not stated)
COc1cccc(C(=O)NCC(=O)OCc2cc(=O)n3c(C)csc3n2)c1
CC1=C(C(=O)Nc2cccnc2)C(c2cccc(F)c2)n2nc(SCc3ccccc3)nc2N1 (configuration not stated)
CCCCNC(=O)c1ccc2c(c1)NC(=O)C(CS(=O)(=O)Cc1cccc(C)c1)N2 (configuration not stated)
COc1ccc(CNC(=O)c2nc(SC(C)C)ncc2Cl)cc1
O=c1c2cn[nH]c2nc(SCc2cccc(Br)c2)n1-c1ccc(Cl)cc1
CCOc1ccc(CCNC(=O)CCc2c(C)nc3c(-c4ccccc4)c(C)nn3c2C)cc1OCC
CCOC(=O)c1c(-c2ccccc2)csc1NC(=O)c1cc(-c2ccc(Br)cc2)on1
CCOC(=O)c1cccc(NC(=O)C2CCCN(S(=O)(=O)c3ccc4c(c3)oc(=O)n4C)C2)c1 (configuration not stated)
COc1ccc(NC(=O)/C(C#N)=C/c2cc(C)n(-c3ccc(F)cc3)c2C)cc1
Cc1ccc(Cl)cc1NC(=O)Cn1c(=O)n(CCCS(=O)(=O)C2CCCCC2)c(=O)c2ccccc21
Cc1nc2nncn2c(NCc2ccc(Cl)cc2)c1C
Cc1ccc(-n2c(=O)c3c4c(sc3n(Cc3cccc(Cl)c3)c2=O)CCC4)cc1C
COc1ccc(NS(=O)(=O)c2ccc3c(c2)CCN3C(=O)CCC(=O)O)cc1Cl
COc1ccc2cc3cc(C(=O)N4CCN(c5cccc(Cl)c5)CC4)sc3nc2c1
CCOc1ccc(NC(=O)Cn2cc(C(=O)c3ccc(CC)cc3)c(=O)c3cc(OC)c(OC)cc32)cc1
COc1ccc(-c2c3c(=O)n(C)c(=O)n(C)c3c3c(-c4cccc(C)c4)nc4ccccc4n23)cc1
